The values below come from the BET-seq Pho4 binding data (Le et al. 2018).

The list shows a part of the results. Values were computed here from the reads of four pooled replicates and scatter widely.

The assay deals with T1, Pho4 (S. cerevisiae) (UniProt P07270).
T1 sequence: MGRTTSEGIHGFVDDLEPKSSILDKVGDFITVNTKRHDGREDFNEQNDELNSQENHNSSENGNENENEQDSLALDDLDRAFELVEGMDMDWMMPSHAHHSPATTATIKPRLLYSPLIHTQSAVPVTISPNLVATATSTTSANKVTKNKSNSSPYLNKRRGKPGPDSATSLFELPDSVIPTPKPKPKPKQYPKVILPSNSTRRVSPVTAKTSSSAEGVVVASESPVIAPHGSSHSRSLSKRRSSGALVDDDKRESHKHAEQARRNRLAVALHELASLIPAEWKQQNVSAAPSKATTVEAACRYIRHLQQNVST
Put plainly: relative binding free energy (BET-seq); higher = weaker binding. The settings on record: reference: library average.
For TGATCCACGTGGGTAG, the “relative binding free energy” value was -0.05 kcal/mol. The same measure for AGTGTCACGTGGGCCG: -0.13 kcal/mol; for TGGCTCACGTGGGAGT: 0.17 kcal/mol. Under CAGGTCACGTGGCGGT stands -0.09 kcal/mol; under AGTTTCACGTGGCGAA, 0.14 kcal/mol. The same measure for GCGTTCACGTGCGTGT: 0.18 kcal/mol. On to ATAGGCACGTGAGTCT, for which the “relative binding free energy” value was -0.02 kcal/mol.

Regarding ATGTACACGTGAAGTG, the “relative binding free energy” value turned out to be 0.26 kcal/mol.

For GATTCCACGTGATGTT, the “relative binding free energy” value is 0.43 kcal/mol.

For AGTAACACGTGGTGTC, the “relative binding free energy” value is -0.04 kcal/mol. The same measure for GTCTTCACGTGGGTTA: 0.22 kcal/mol; for TTATGCACGTGGTAGC: -0.25 kcal/mol.

Consider TTGATCACGTGGCGAG, for which the “relative binding free energy” value was 0.08 kcal/mol. Regarding GTGTGCACGTGCGCTG, the “relative binding free energy” value was -0.18 kcal/mol. Turning to CATGTCACGTGTGTGA, the “relative binding free energy” value was 0.08 kcal/mol. On to TGTCTCACGTGAATGA, for which the “relative binding free energy” value stood at 0.42 kcal/mol.

Take AATAGCACGTGGTCGT: the “relative binding free energy” value was -0.17 kcal/mol. Under AGGGTCACGTGATACT stands 0.21 kcal/mol. The same measure for GACTGCACGTGGTGGA: 0.03 kcal/mol. The same measure for TTCGGCACGTGCGTGG: -0.21 kcal/mol. ATATCCACGTGGTGGG: the “relative binding free energy” value was -0.27 kcal/mol. As to GTTGACACGTGGGGTT, the “relative binding free energy” value was -0.03 kcal/mol. Under GTCTACACGTGGTGTA stands 0.02 kcal/mol; under CGACTCACGTGTGGGG, 0.16 kcal/mol; under GAATGCACGTGTTGAG, 0.07 kcal/mol.

As to TGATGCACGTGTTATA, the “relative binding free energy” value is 0.03 kcal/mol. Under GCTGCCACGTGGGGGT stands -0.28 kcal/mol; under CTGATCACGTGTTGAG, 0.16 kcal/mol.

Regarding TGGTACACGTGTGAAT, the “relative binding free energy” value stood at 0.12 kcal/mol.

Consider CGAGCCACGTGTGGGG, for which the “relative binding free energy” value is -0.08 kcal/mol. The same measure for TTTTTCACGTGGACGG: 0.36 kcal/mol. In the case of GAGATCACGTGCGTGT, the “relative binding free energy” value stood at 0.11 kcal/mol.

Turning to GGTTGCACGTGCAATG, the “relative binding free energy” value came out at 0.04 kcal/mol.

On to GTGAGCACGTGAGGTT, for which the “relative binding free energy” value came to 0.15 kcal/mol. Under AAAGTCACGTGTGGAG stands 0.09 kcal/mol; under GGTTTCACGTGCTTTA, 0.27 kcal/mol.

On to TGGGTCACGTGGTCTA, for which the “relative binding free energy” value was -0.04 kcal/mol. For the sequence TATTTCACGTGGGTAT, the “relative binding free energy” value is 0.04 kcal/mol. Under CGGTGCACGTGGTGAG stands -0.06 kcal/mol. Under GGTCGCACGTGTTAGA stands 0.1 kcal/mol. The same measure for CGAGTCACGTGGTGTT: 0.01 kcal/mol; for GGTCACACGTGTAAGG: 0.1 kcal/mol. Take TTAGACACGTGCTGTT: the “relative binding free energy” value was -0.23 kcal/mol. As to TATTACACGTGATGGG, the “relative binding free energy” value was 0.19 kcal/mol.

Take TTTGACACGTGGTACT: the “relative binding free energy” value is -0.05 kcal/mol.

Regarding AGTACCACGTGTGTTG, the “relative binding free energy” value was -0.01 kcal/mol. The same measure for TCGGTCACGTGTGGAT: 0.19 kcal/mol; for TAGTCCACGTGGTGAT: -0.02 kcal/mol; for CGTTGCACGTGTTAGA: 0.11 kcal/mol. Under ATTTGCACGTGTTGTA stands 0.03 kcal/mol; under GACTGCACGTGTTGGG, 0.02 kcal/mol.

Consider AATTACACGTGTCGGT, for which the “relative binding free energy” value was -0.02 kcal/mol. With AAGGCCACGTGAAGGG, the “relative binding free energy” value was 0.11 kcal/mol. Under CTTATCACGTGTGCTT stands 0.17 kcal/mol. The same measure for TGGTACACGTGAATAG: 0.29 kcal/mol.

As for GTAAGCACGTGTAAGT, the “relative binding free energy” value turned out to be 0.04 kcal/mol.

For ATTTTCACGTGGAGAA, the “relative binding free energy” value amounted to 0.24 kcal/mol. Under TCGGTCACGTGGATTG stands 0.07 kcal/mol; under TGCGGCACGTGCAGTT, -0.07 kcal/mol.

As to GTTCACACGTGGTCGT, the “relative binding free energy” value was found to be 0.11 kcal/mol. The same measure for TGGGGCACGTGTTGGG: -0.03 kcal/mol. The same measure for AGGGACACGTGGGTTA: -0.04 kcal/mol; for TGGGACACGTGTTGTG: 0 kcal/mol; for GTGTCCACGTGAGTTG: 0.17 kcal/mol. Under TAAGGCACGTGTGCTG stands -0.11 kcal/mol; under AGGGGCACGTGGTTAA, -0.16 kcal/mol. As to GGGGACACGTGGTATG, the “relative binding free energy” value stood at 0.03 kcal/mol.

For the sequence TGCAGCACGTGAAGTT, the “relative binding free energy” value was found to be 0.18 kcal/mol. The same measure for CATCTCACGTGTGGGG: 0.28 kcal/mol; for ATTGACACGTGTGTTT: 0 kcal/mol; for GTGGACACGTGCATGT: 0.08 kcal/mol. The same measure for TGGTTCACGTGATCAA: 0.32 kcal/mol.

For the sequence GGGGGCACGTGTTGTT, the “relative binding free energy” value was -0.13 kcal/mol. Under CTGGTCACGTGAATTA stands 0.29 kcal/mol; under TTTACCACGTGGATGA, 0.1 kcal/mol.

On to CAGATCACGTGAGGTG, for which the “relative binding free energy” value came out at 0.49 kcal/mol. Under TGCATCACGTGTGGGG stands 0.17 kcal/mol. The same measure for AAGATCACGTGTGAAT: 0.25 kcal/mol. The same measure for TATTTCACGTGATTTA: 0.26 kcal/mol. As for TTCGGCACGTGGGTCG, the “relative binding free energy” value is -0.09 kcal/mol. The same measure for AGTTGCACGTGAGATA: 0.17 kcal/mol; for TTTATCACGTGGTGTG: 0.09 kcal/mol; for TTAGGCACGTGTCAGC: 0.11 kcal/mol. Turning to ATGAGCACGTGGGAGC, the “relative binding free energy” value is -0.05 kcal/mol. Under TGTGGCACGTGGCGAG stands -0.07 kcal/mol.

With TCGAGCACGTGGTATG, the “relative binding free energy” value is -0.21 kcal/mol. The same measure for GGTGGCACGTGCGGAT: -0.22 kcal/mol. The same measure for GTGGCCACGTGTTTGG: 0.15 kcal/mol. The same measure for GTGAACACGTGTGGAA: 0.14 kcal/mol. Turning to GCGCTCACGTGTATGG, the “relative binding free energy” value worked out at 0.28 kcal/mol. The same measure for ATCTTCACGTGAAGTG: 0.15 kcal/mol; for TGTATCACGTGATATC: 0.31 kcal/mol; for ATTTACACGTGTCTTA: 0.08 kcal/mol. Under GTGTGCACGTGTTCAT stands 0.03 kcal/mol; under AAGCGCACGTGTGGTA, -0.15 kcal/mol; under GTATGCACGTGCTTGT, -0.04 kcal/mol. As to TATAACACGTGTGTAA, the “relative binding free energy” value turned out to be 0 kcal/mol.

For the sequence GCAGGCACGTGAAGGG, the “relative binding free energy” value was determined as 0.08 kcal/mol. Under CGCGGCACGTGGGGTG stands -0.32 kcal/mol. The same measure for TGAGGCACGTGATGAA: -0.01 kcal/mol. Regarding GCGGGCACGTGTTTTT, the “relative binding free energy” value is -0.08 kcal/mol. Consider GCTGGCACGTGTGATG, for which the “relative binding free energy” value was 0.04 kcal/mol.

Take ACATTCACGTGTGGTG: the “relative binding free energy” value worked out at 0.23 kcal/mol. The same measure for TTAAGCACGTGGTGGG: -0.19 kcal/mol; for AGTGACACGTGTGAGC: 0.09 kcal/mol; for AAATGCACGTGGGTGC: -0.12 kcal/mol. The same measure for ATGTACACGTGTATAA: 0.12 kcal/mol; for TTGGACACGTGATTGG: 0.15 kcal/mol. The same measure for GAAGGCACGTGGTATA: -0.18 kcal/mol; for ATGTGCACGTGTGGTG: 0.01 kcal/mol; for TGTGTCACGTGCTGGG: 0.15 kcal/mol.

As to GGCGACACGTGGTGGT, the “relative binding free energy” value is -0.02 kcal/mol.

Consider GTTAACACGTGAGCTG, for which the “relative binding free energy” value was 0.26 kcal/mol. The same measure for TTAGTCACGTGCGATG: 0.19 kcal/mol; for ACGTTCACGTGTTGTA: 0.22 kcal/mol. Under TTAGGCACGTGGTCTG stands -0.12 kcal/mol. The same measure for AATATCACGTGCGTGG: -0.03 kcal/mol; for CATGGCACGTGGTTGA: -0.14 kcal/mol; for CGTCGCACGTGGGTGA: -0.18 kcal/mol. In the case of GGGTTCACGTGTAGTC, the “relative binding free energy” value amounted to 0.36 kcal/mol. Consider GGACGCACGTGAGGGA, for which the “relative binding free energy” value was 0.1 kcal/mol. Under TTGGTCACGTGCAGGT stands 0.13 kcal/mol; under ATATTCACGTGGGATT, 0.3 kcal/mol. In the case of ATTGGCACGTGGTGTG, the “relative binding free energy” value was -0.18 kcal/mol. In the case of TATAGCACGTGTGGAT, the “relative binding free energy” value came to 0.05 kcal/mol. The same measure for AAGGTCACGTGTAGTG: 0.09 kcal/mol; for TGGGGCACGTGCATTG: -0.13 kcal/mol; for TTGAACACGTGATTGT: 0.24 kcal/mol. Consider GTGAGCACGTGATTTG, for which the “relative binding free energy” value was found to be 0.12 kcal/mol. The same measure for CTAGGCACGTGAGGTA: 0.04 kcal/mol; for GGAATCACGTGAGCGT: 0.39 kcal/mol.

GGCTGCACGTGGTAGG: the “relative binding free energy” value is -0.04 kcal/mol. For TTTGGCACGTGGGGAC, the “relative binding free energy” value was -0.15 kcal/mol. Under ATCATCACGTGATTGT stands 0.22 kcal/mol; under TGCATCACGTGGAATT, 0.41 kcal/mol. Under GGAATCACGTGAGTTT stands 0.22 kcal/mol; under GTGTCCACGTGCGGAG, 0.05 kcal/mol; under GTCTTCACGTGCATGG, 0.31 kcal/mol. The same measure for GTGGCCACGTGTGTGC: 0.04 kcal/mol; for GGTGGCACGTGAAAGG: 0.29 kcal/mol. Turning to TGTGACACGTGGAATT, the “relative binding free energy” value amounted to 0.19 kcal/mol. As to TTGTTCACGTGGACTA, the “relative binding free energy” value is 0.15 kcal/mol. Under ATAGTCACGTGTAGGA stands 0.1 kcal/mol.

With TAGGGCACGTGTCGCG, the “relative binding free energy” value was -0.25 kcal/mol. Under TTCAGCACGTGGGTAA stands -0.2 kcal/mol.

As for TGAGGCACGTGCTTGG, the “relative binding free energy” value is -0.21 kcal/mol.
